The list shows a part of the results. At the low end of the ranking the order means little.
What follows are sequences tested against T1, GST-Rok-C97-191 (UniProt O34857) (assay: protein binding microarray). Conditions: Rok is a gene silencer of Bacillus subtilis; high values mean tight binding; most listed sequences are background and not binding sites; double strand, one strand shown.
T1 sequence: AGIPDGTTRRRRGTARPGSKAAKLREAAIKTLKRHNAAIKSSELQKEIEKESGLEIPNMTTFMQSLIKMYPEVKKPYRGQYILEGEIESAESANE
In the case of CAAGGGTC, the binding signal is reported as -0.151 E-score.
AATTCAGG was tested, and the binding signal was -0.0589 E-score.
AGTGAGGC was tested, and the binding signal was -0.0807 E-score.
GAATATAC was tested, and the binding signal was 0.293 E-score.
For AGCTTATG, the binding signal was 0.00766 E-score.
With CACCACTA the binding signal was 0.116 E-score.
AAAAGTGG gave a binding signal of 0.0303 E-score.
In the case of ACGAGTGA, the binding signal is reported as -0.0182 E-score.
Sequence AGATAGCG has a binding signal of 0.31 E-score.
With GGTAGACA the binding signal was 0.0947 E-score.
AACCCAGC showed a binding signal of -0.114 E-score.
For AGTCCCTC, the binding signal was -0.267 E-score.
CGGGGCAA showed a binding signal of -0.163 E-score.
AACAAACT showed a binding signal of 0.013 E-score.
Work on CATTCAAG yielded a binding signal of 0.0359 E-score.
With AAACGATA the binding signal was 0.0851 E-score.
Work on GTGAGTGA yielded a binding signal of -0.0284 E-score.
In the case of GCGGGCAA, the binding signal is reported as -0.136 E-score.
TCCTAGCA gave a binding signal of 0.0436 E-score.
Sequence GAACTAAA has a binding signal of 0.21 E-score.
Sequence CTCATCAG has a binding signal of 0.0759 E-score.
For AACGCGCG, the binding signal was -0.0781 E-score.
With CGAGACCG the binding signal was -0.279 E-score.
With CGCAAGCA the binding signal was -0.132 E-score.
CCCTAAAA showed a binding signal of -0.0146 E-score.
In the case of ACCGACGC, the binding signal is reported as -0.0844 E-score.
Sequence GATAGCCC has a binding signal of -0.244 E-score.
In the case of CAATCGTG, the binding signal is reported as -0.0616 E-score.
Work on GAAGCTTA yielded a binding signal of -0.0189 E-score.
ATAGACGG gave a binding signal of -0.156 E-score.
Work on CAGAAACG yielded a binding signal of -0.0943 E-score.
CGGGTAAA showed a binding signal of -0.033 E-score.
AAACTGCC gave a binding signal of -0.0722 E-score.
For CATATACG, the binding signal was 0.21 E-score.
In the case of AGATCCTG, the binding signal is reported as 0.0839 E-score.
AAGACAGA gave a binding signal of -0.0822 E-score.
In the case of CCCGACAG, the binding signal is reported as -0.223 E-score.
TGGGAAAA showed a binding signal of -0.0131 E-score.
Work on ACTCCTAT yielded a binding signal of 0.221 E-score.
Work on CCGACTCG yielded a binding signal of -0.163 E-score.
Sequence CAATACCC has a binding signal of 0.0576 E-score.
Work on CTCAACGA yielded a binding signal of -0.0623 E-score.
In the case of CGCACACG, the binding signal is reported as -0.218 E-score.
CTATCTTA was tested, and the binding signal was 0.227 E-score.
ACGCTAAA gave a binding signal of -0.0082 E-score.
Sequence CGTCAAGA has a binding signal of -0.201 E-score.
Work on CATTCTCA yielded a binding signal of 0.029 E-score.
CGAGGACC gave a binding signal of -0.0774 E-score.
Sequence GAGGAACA has a binding signal of -0.114 E-score.
In the case of AAGCCTTG, the binding signal is reported as -0.29 E-score.
In the case of GAAGACAC, the binding signal is reported as -0.085 E-score.
CAGGAACA showed a binding signal of -0.101 E-score.
Work on ATATTGTC yielded a binding signal of 0.221 E-score.
For ACCAACCA, the binding signal was -0.193 E-score.
With ATGGAAAT the binding signal was 0.0207 E-score.
AGCGCTGC showed a binding signal of -0.144 E-score.
ACGTTGCT showed a binding signal of -0.0137 E-score.
In the case of CCTATAAA, the binding signal is reported as 0.301 E-score.
With CTCCCTAC the binding signal was -0.213 E-score.
Sequence CGACAAAA has a binding signal of 0.068 E-score.
CATACCCA showed a binding signal of 0.194 E-score.
With GAAGCAAA the binding signal was 0.014 E-score.
In the case of GAAAATAA, the binding signal is reported as 0.156 E-score.
For AAAAACAC, the binding signal was 0.14 E-score.
With ATACGAGG the binding signal was -0.157 E-score.
In the case of AAAGCTAC, the binding signal is reported as 0.327 E-score.
CCAAGTTA showed a binding signal of 0.115 E-score.
Work on ACCAAGCA yielded a binding signal of 0.0688 E-score.
GAGCCCTA was tested, and the binding signal was -0.171 E-score.
Sequence AAGTCCCT has a binding signal of -0.125 E-score.
In the case of CTCCTTAA, the binding signal is reported as -0.0937 E-score.
Sequence GACACGGA has a binding signal of -0.18 E-score.
With TACAAGTA the binding signal was 0.272 E-score.
For TCACTAAA, the binding signal was 0.164 E-score.
With CCGCGCCA the binding signal was -0.208 E-score.
ACCGCTAC gave a binding signal of 0.158 E-score.
CTGATGTA was tested, and the binding signal was 0.257 E-score.
TAAAACCA gave a binding signal of -0.0458 E-score.
With CCGCTTAA the binding signal was 0.0128 E-score.
For AATATGAA, the binding signal was 0.166 E-score.
AGAGTACG was tested, and the binding signal was 0.0174 E-score.
In the case of CCTATTAA, the binding signal is reported as 0.0709 E-score.
For CGTAGATC, the binding signal was 0.225 E-score.
AGCAAGAG was tested, and the binding signal was 0.0808 E-score.
GCATAAAC showed a binding signal of 0.0914 E-score.
Work on AGTAAATA yielded a binding signal of 0.425 E-score.
Work on CGTGCTAA yielded a binding signal of -0.00287 E-score.
Sequence AAGCGTCG has a binding signal of -0.175 E-score.
In the case of AGGAAGTC, the binding signal is reported as -0.28 E-score.
AGGGGCAC showed a binding signal of -0.363 E-score.
AGTGATCA showed a binding signal of 0.0262 E-score.
GATTGAAA gave a binding signal of 0.0414 E-score.
ACGATTGG showed a binding signal of -0.0603 E-score.
For CCTGATCC, the binding signal was -0.288 E-score.
With TTAGCTAA the binding signal was 0.263 E-score.
GATGGGTA was tested, and the binding signal was -0.0187 E-score.
ATTGATCA showed a binding signal of 0.0331 E-score.
For CTAGGCAA, the binding signal was 0.0919 E-score.
In the case of ACCCTCCC, the binding signal is reported as -0.0987 E-score.
For CCTCAGTA, the binding signal was -0.0305 E-score.
In the case of GGCACGCC, the binding signal is reported as -0.295 E-score.
CACAAGAA gave a binding signal of -0.0545 E-score.
AGTGGTAT was tested, and the binding signal was 0.313 E-score.
AATGAATC was tested, and the binding signal was -0.0762 E-score.
For AGGACGAA, the binding signal was -0.246 E-score.
Work on AGCGACTA yielded a binding signal of -0.0392 E-score.
For AATTAGGT, the binding signal was 0.273 E-score.
For CTTACGCC, the binding signal was -0.00614 E-score.
GGATAGAC showed a binding signal of -0.182 E-score.

Reference: article PMC6212790
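Note: rank score from −0.5 (least bound) to 0.5 (best bound).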
